# Experimental data taken from the supplement of paper PMC8728848.
# This is one part of the list.
# B1: Clec18C (Homo sapiens) (protein)
# chain: MLHPETSPGRGHLLAVLLALLGTAWAEVWPPQLQEQAPMAGALNRKESFLLLSLHNRLRSWVQPPAADMRRLDWSDSLAQLAQARAALCGTPTPSLASGLWRTLQVGWNMQLLPAGLVSFVEVVSLWFAEGQRYSHAAGECARNATCTHYTQLVWATSSQLGCGRHLCSAGQAAIEAFVCAYSPRGNWEVNGKTIVPYKKGAWCSLCTASVSGCFKAWDHAGGLCEVPRNPCRMSCQNHGRLNISTCHCHCPPGYTGRYCQVRCSLQCVHGRLREEECSCVCDIGYGGAQCATKVHFPFHTCDLRIDGDCFMVSSEADTYYRARMKCQRKGGVLAQIKSQKVQDILAFYLGRLETTNEVIDSDFETRNFWIGLTYKTAKDSFRWATGEHQAFTSFAFGQPDNHGFGNCVELQASAAFNWNNQRCKTRNRYICQFAQEHISRWGPGS
# Legend:
# Test in all cases: glycan array binding signal (z-score within array); higher = stronger binding
# Details in all cases: glycan notation: IUPAC condensed, linker removed
# [1] = molecular target: Fuc(a1-3)[Gal3S(b1-4)]GlcNAc6S
# Summary of the method: (§1)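 Negative Z-scores can be read as non-binding. The Z-score is calculated within each array and then averaged across arrays of one protein sequence at different concentrations or buffers and across linkers. Arrays, 3228 in all, were curated from the Consortium for Functional Glycomics database and kept only where the protein sequence was available.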
# [2] = molecular target: Fuc(a1-3)[GalNAc(b1-4)]GlcNAc
# Summary of the method: as §1
# [3] = molecular target: Fuc(a1-3)[GalNAc(b1-4)]GlcNAc6S
# Summary of the method: as §1
# Fuc(a1-4)GlcNAc = molecular target: Fuc(a1-4)GlcNAc
# Summary of the method: as §1
# Fuc(b1-3)GlcNAc = molecular target: Fuc(b1-3)GlcNAc
# Summary of the method: as §1
# Gal(a1-2)Gal = molecular target: Gal(a1-2)Gal
# Summary of the method: as §1
# Gal(a1-3)Gal = molecular target: Gal(a1-3)Gal
# Summary of the method: as §1
# Gal(a1-3)Gal(b1-3)GlcNAc = molecular target: Gal(a1-3)Gal(b1-3)GlcNAc
# Summary of the method: as §1
# [4] = molecular target: Gal(a1-3)Gal(b1-3)GlcNAc(b1-2)Man
# Summary of the method: as §1
# [5] = molecular target: Gal(a1-3)Gal(b1-3)GlcNAc(b1-2)Man(a1-3)[Gal(a1-3)Gal(b1-3)GlcNAc(b1-2)Man(a1-6)]Man(b1-4)GlcNAc(b1-4)GlcNAc
# Summary of the method: as §1
# [6] = molecular target: Gal(a1-3)Gal(b1-3)GlcNAc(b1-3)GalNAc
# Summary of the method: as §1
# [7] = molecular target: Gal(a1-3)Gal(b1-3)GlcNAc(b1-6)GalNAc
# Summary of the method: as §1
# [8] = molecular target: Gal(a1-3)Gal(b1-3)[Fuc(a1-4)]GlcNAc(b1-2)Man(a1-3)[Gal(a1-3)Gal(b1-3)[Fuc(a1-4)]GlcNAc(b1-2)Man(a1-6)]Man(b1-4)GlcNAc(b1-4)GlcNAc
# Summary of the method: as §1
# Gal(a1-3)Gal(b1-4)Glc = molecular target: Gal(a1-3)Gal(b1-4)Glc
# Summary of the method: as §1
# Gal(a1-3)Gal(b1-4)GlcNAc = molecular target: Gal(a1-3)Gal(b1-4)GlcNAc
# Summary of the method: as §1
# [9] = molecular target: Gal(a1-3)Gal(b1-4)GlcNAc(b1-2)Man
# Summary of the method: as §1
# [10] = molecular target: Gal(a1-3)Gal(b1-4)GlcNAc(b1-2)Man(a1-3)[Gal(a1-3)Gal(b1-4)GlcNAc(b1-2)Man(a1-6)]Man(b1-4)GlcNAc(b1-4)GlcNAc
# Summary of the method: as §1
# [11] = molecular target: Gal(a1-3)Gal(b1-4)GlcNAc(b1-3)GalNAc
# Summary of the method: as §1
# [12] = molecular target: Gal(a1-3)Gal(b1-4)GlcNAc(b1-6)GalNAc
# Summary of the method: as §1
# [13] = molecular target: Gal(a1-3)Gal(b1-4)[Fuc(a1-3)]GlcNAc
# Summary of the method: as §1
# [14] = molecular target: Gal(a1-3)Gal(b1-4)[Fuc(a1-3)]GlcNAc(b1-2)Man(a1-3)[Gal(a1-3)Gal(b1-4)[Fuc(a1-3)]GlcNAc(b1-2)Man(a1-6)]Man(b1-4)GlcNAc(b1-4)GlcNAc
# Summary of the method: as §1
# Gal(a1-3)GalNAc = molecular target: Gal(a1-3)GalNAc
# Summary of the method: as §1
# [15] = molecular target: Gal(a1-3)[Gal(a1-4)]Gal(b1-4)GlcNAc
# Summary of the method: as §1
# [16] = molecular target: Gal(a1-4)Gal(b1-3)GlcNAc(b1-2)Man(a1-3)[Gal(a1-4)Gal(b1-3)GlcNAc(b1-2)Man(a1-6)]Man(b1-4)GlcNAc(b1-4)GlcNAc
# Summary of the method: as §1
# Gal(a1-4)Gal(b1-4)Glc = molecular target: Gal(a1-4)Gal(b1-4)Glc
# Summary of the method: as §1
# Gal(a1-4)Gal(b1-4)GlcNAc = molecular target: Gal(a1-4)Gal(b1-4)GlcNAc
# Summary of the method: as §1
# [17] = molecular target: Gal(a1-4)Gal(b1-4)GlcNAc(b1-2)Man(a1-3)[Gal(a1-4)Gal(b1-4)GlcNAc(b1-2)Man(a1-6)]Man(b1-4)GlcNAc(b1-4)GlcNAc
# Summary of the method: as §1
# [18] = molecular target: Gal(a1-4)Gal(b1-4)GlcNAc(b1-3)Gal(b1-4)Glc
# Summary of the method: as §1
# Gal(a1-4)GlcNAc = molecular target: Gal(a1-4)GlcNAc
# Summary of the method: as §1
# Gal(a1-6)Glc = molecular target: Gal(a1-6)Glc
# Summary of the method: as §1
# Gal(b1-2)Gal = molecular target: Gal(b1-2)Gal
# Summary of the method: as §1
# Gal(b1-3)Gal = molecular target: Gal(b1-3)Gal
# Summary of the method: as §1
# Gal(b1-3)Gal(b1-4)GlcNAc = molecular target: Gal(b1-3)Gal(b1-4)GlcNAc
# Summary of the method: as §1
# Gal(b1-3)GalNAc = molecular target: Gal(b1-3)GalNAc
# Summary of the method: as §1
# [19] = molecular target: Gal(b1-3)GalNAc(a1-3)[Fuc(a1-2)]Gal(b1-4)Glc
# Summary of the method: as §1
# [20] = molecular target: Gal(b1-3)GalNAc(a1-3)[Fuc(a1-2)]Gal(b1-4)GlcNAc
# Summary of the method: as §1
# Gal(b1-3)GalNAc(b1-3)Gal = molecular target: Gal(b1-3)GalNAc(b1-3)Gal
# Summary of the method: as §1
binder,measurement,setting,value
B1,glycan array binding signal (z-score),[1],1.06
same,glycan array binding signal (z-score),[2],-0.121
same,glycan array binding signal (z-score),[3],0.313
same,glycan array binding signal (z-score),Fuc(a1-4)GlcNAc,-0.617
same,glycan array binding signal (z-score),Fuc(b1-3)GlcNAc,-0.605
same,glycan array binding signal (z-score),Gal(a1-2)Gal,-0.049
same,glycan array binding signal (z-score),Gal(a1-3)Gal,0.329
same,glycan array binding signal (z-score),Gal(a1-3)Gal(b1-3)GlcNAc,1.01
same,glycan array binding signal (z-score),[4],-0.431
same,glycan array binding signal (z-score),[5],0.364
same,glycan array binding signal (z-score),[6],-0.314
same,glycan array binding signal (z-score),[7],0.674
same,glycan array binding signal (z-score),[8],-0.476
same,glycan array binding signal (z-score),Gal(a1-3)Gal(b1-4)Glc,1.37
same,glycan array binding signal (z-score),Gal(a1-3)Gal(b1-4)GlcNAc,2.72
same,glycan array binding signal (z-score),[9],-0.41
same,glycan array binding signal (z-score),[10],-0.261
same,glycan array binding signal (z-score),[11],-0.365
same,glycan array binding signal (z-score),[12],-0.459
same,glycan array binding signal (z-score),[13],1.67
same,glycan array binding signal (z-score),[14],0.188
same,glycan array binding signal (z-score),Gal(a1-3)GalNAc,-0.161
same,glycan array binding signal (z-score),[15],-0.42
same,glycan array binding signal (z-score),[16],-0.306
same,glycan array binding signal (z-score),Gal(a1-4)Gal(b1-4)Glc,0.762
same,glycan array binding signal (z-score),Gal(a1-4)Gal(b1-4)GlcNAc,1.24
same,glycan array binding signal (z-score),[17],0.282
same,glycan array binding signal (z-score),[18],-0.492
same,glycan array binding signal (z-score),Gal(a1-4)GlcNAc,-0.3
same,glycan array binding signal (z-score),Gal(a1-6)Glc,-0.605
same,glycan array binding signal (z-score),Gal(b1-2)Gal,2.01
same,glycan array binding signal (z-score),Gal(b1-3)Gal,-0.247
same,glycan array binding signal (z-score),Gal(b1-3)Gal(b1-4)GlcNAc,1.45
same,glycan array binding signal (z-score),Gal(b1-3)GalNAc,-0.46
same,glycan array binding signal (z-score),[19],-0.454
same,glycan array binding signal (z-score),[20],-0.231
same,glycan array binding signal (z-score),Gal(b1-3)GalNAc(b1-3)Gal,-0.58
